PubChem BioAssay AID1345083 (National Center for Advancing Translational Sciences (NCATS), 2018)
Out of some 94,000 compounds screened, about 6,200 (6.6%) were called active. The inconclusive results got no clear call from the source; some entries with a clear call stand among them for comparison. Calls follow the shape of the dose curve; as a rule, active = well fitted inhibition curve with a large enough effect; inconclusive = small, poorly fitted or top-dose-only effect; inactive = flat fitted curve, though single readings scatter. Potencies of inconclusive entries are doubtful fits and often do not repeat.

Assay: Cytotoxic Profiling in HEK 293 Cell Line of Diverse Libraries Using Quantitative High-Throughput Screening; also: nearly all actives have a fitted effect of over 60% in size
Details: HEK 293 viability, ATP luminescence (CellTiter-Glo), 48-72 h; series mostly up to 115 µM
In short: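 Viability of HEK 293 cells, plated at 250 cells/well, was judged by cellular ATP after compound treatment for 48 or 72 hr. Luminescence was imaged 10 min after CellTiter-Glo addition at room temperature.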
Potency is read from the fitted curve at half-maximal effect; tags tell the direction and shape of the fitted curve.

Structure (SMILES)	Potency
O=C(c1cccc(F)c1)N1CCCC(n2cc(-c3nc(C4CC4)no3)nn2)C1 (configuration not stated)	inconclusive: 89.1 µM [inhibitor, single point]
CNc1nccc(N2CCC(CC(=O)NCc3ccccn3)CC2)n1	inconclusive: 56.2 µM [inhibitor, partial curve, poor fit]
CC(C)c1nc2c(c(-c3ccc(O)cc3)n1)CN(C(=O)c1cccc(Cl)c1)CC2	inconclusive: 35.5 µM [inhibitor, partial curve, poor fit]
Cc1ccc(NC(=O)N2CCc3c(c4ccccc4n3C)C2)cc1C	active: 44.7 µM
Cn1c(=O)c2c(ncn2CC(=O)N2CCC(CCOc3ccc(F)cc3)C2)n(C)c1=O (configuration not stated)	active: 89.1 µM
COc1ccccc1C(=O)NC[C@@H]1CC[C@H]2C[C@@H]1C2(C)C	inconclusive: 126 µM [inhibitor, single point]
Cn1ncc2c(C(=O)NCCCc3ccccc3)cc(-c3cccc(F)c3)nc21	inconclusive: 39.8 µM [inhibitor, full curve]
Cc1c(CN(C)C(=O)CC2C(=O)NCCN2CC(C)(C)C)[nH]c2ccccc12 (configuration not stated)	inconclusive: 56.2 µM [inhibitor, partial curve, poor fit]
O=c1c2cc(-c3cccs3)nn2ccn1CC(O)c1cccc(Cl)c1 (configuration not stated)	inconclusive: 79.4 µM [inhibitor, single point]
CCOC(=O)C1=CN(Cc2ccccc2)S(=O)(=O)N=C1C	inactive
Cc1ccc(CN2CCC3(Cc4ccccc4CNC3=O)C2)cc1C (configuration not stated)	inconclusive: 56.2 µM [inhibitor, partial curve, poor fit]
CCOc1ccccc1CN1CCN(c2ccnc(N)n2)CC1CCO (configuration not stated)	inconclusive: 89.1 µM [inhibitor, single point]
Cc1nc(C2(C)CCN(C(=O)c3ccc(Cc4c(C)noc4C)o3)CC2)no1	inconclusive: 79.4 µM [inhibitor, partial curve, poor fit]
O=C(NCc1nnc2ccc(-c3ccc(F)cc3)nn12)c1cc(Cl)ccc1F	inconclusive: 79.4 µM [inhibitor, partial curve, poor fit]
COCCNC(=O)c1cc(C2CC2)nc2onc(C3CCCN3)c12 (configuration not stated)	inactive
Cc1ccsc1C(=O)N1CCCN(c2cc(-c3ccc(Cl)cc3)[nH]n2)CC1	active: 31.6 µM
COCCNC(=O)Cc1c[nH]c2ncc(-c3ccccc3)cc12	inactive
O=C1NC2(CCCN(C(=O)Cc3ccccc3)C2)Oc2ccccc21 (configuration not stated)	inactive
COc1ccc(NC(=O)c2ccc3oc(-c4ccccn4)nc3c2)cc1	inconclusive: 25.1 µM [inhibitor, full curve]
Cc1cccc(-n2ncc3c2CCCC3NC(=O)CN2CCNC(=O)C2)c1C (configuration not stated)	inactive
Cc1ccc(-c2noc([C@@H]3C[C@H](NS(=O)(=O)c4ccccc4)CN3C)n2)cc1	inconclusive: 89.1 µM [inhibitor, partial curve, poor fit]

Structure (SMILES)	Potency
CCCCNC(=O)c1cccc2c1CCN2S(=O)(=O)c1cccc(C)c1	inconclusive: 50.1 µM [inhibitor, partial curve, poor fit]
O=C(NCc1ccccc1)C1CCCN(Cc2cccc(-c3ccsc3)c2)C1 (configuration not stated)	inconclusive: 31.6 µM [inhibitor, partial curve, poor fit]
O=C(Cc1c[nH]c2ncc(-c3ccc(Oc4ccccc4)cc3)cc12)N1CCOCC1	active: 56.2 µM
Cc1nc(C2CC(O)C2)cc(N2CCN(C(=O)c3cccs3)CC2)n1 (configuration not stated)	inactive
Cc1nn(Cc2ccccc2)c(C)c1[C@@H]1C=C[C@@H](NC(=O)c2ccc3c(c2)OCO3)C1	active: 28.2 µM
COc1cc(OC)cc(C(=O)N2CCN(c3cc(-c4cccs4)[nH]n3)CC2)c1	inconclusive: 50.1 µM [inhibitor, partial curve, poor fit]
COc1ccc(C(=O)NC[C@H]2Cn3c(-c4ccc(Cl)cc4)cnc3CO2)cc1	active: 100 µM
CCN(CC)Cc1nc(C2(O)CCN(C(=O)Nc3ccc(F)cc3)CC2)cs1	inactive
O=C(Cc1ccc(F)cc1)N1CCC(Cc2nc(-c3ccc(F)cc3)no2)CC1	inconclusive: 35.5 µM [inhibitor, partial curve, poor fit]
OCC1(Cc2cccc(Cl)c2)CCCN(Cc2nc(-c3ccc(F)cc3)cs2)C1 (configuration not stated)	active: 79.4 µM
CCOc1ccccc1NC(=O)Cn1c(C)cc2nc3n(c(=O)c21)CCCCC3	inactive
COc1ccccc1Cn1c(=O)c(C(=O)NCc2cccs2)nc2cccnc21	inconclusive: 79.4 µM [inhibitor, partial curve, poor fit]
Cc1nn(-c2ccccc2)c2c1C(C1CC1)N(C1CCN(C(=O)c3cccc(Cl)c3)C1)C2=O (configuration not stated)	active: 25.1 µM
COc1ccc(-c2cnc3[nH]cc(CC(=O)NC4CCOCC4)c3c2)cc1	inconclusive: 112 µM [inhibitor, partial curve]
O=C(C1CN(S(=O)(=O)c2cccs2)CC12CCCCC2)N1CCCC1 (configuration not stated)	inconclusive: 89.1 µM [inhibitor, single point]
O=C(c1ccc(C2CCCNC2)cc1)N1CCCN(c2ccc(F)cc2)CC1 (configuration not stated)	inconclusive: 50.1 µM [inhibitor, partial curve, poor fit]
NC(=O)c1ccc(OC2CCN(C(=O)C3CCC3)CC2)nc1	inconclusive: 100 µM [inhibitor, partial curve, poor fit]
O=C(c1ccccc1)N1CCCC2(CC(c3cccc(C(F)(F)F)c3)=NO2)C1 (configuration not stated)	inconclusive: 89.1 µM [inhibitor, partial curve, poor fit]
COCCNc1ncccc1-c1noc([C@@H]2CCCN2Cc2ccncc2)n1	inconclusive: 56.2 µM [inhibitor, partial curve, poor fit]
CCCOc1ccc(CNC(=O)CCn2ccn3nc4c(c3c2=O)CCCC4)cc1	inconclusive: 89.1 µM [inhibitor, single point]
O=C(Nc1ccc(F)cc1)C1CN(c2ccnc3ccnn23)C1	inconclusive: 20 µM [inhibitor, full curve, poor fit]
